Test results as given in paper PMC4336329 (PLoS ONE, 2015).
Screen size: about 310,000 compounds; about 14,000 (4.5%) showed an effect of 50% or more. Effects have a minus sign here. The list shows a part of the results.

biological target: human ether-à-go-go-related gene (hERG) potassium channel (human, UniProt Q12809); assay: primary screen, population patch clamp on CHO cells stably expressing hERG
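Further: peak tail current of the secondary pulse compared with the same well before compound.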

Sequence of human ether-à-go-go-related gene (hERG) potassium channel (Q12809 whole entry, looked up): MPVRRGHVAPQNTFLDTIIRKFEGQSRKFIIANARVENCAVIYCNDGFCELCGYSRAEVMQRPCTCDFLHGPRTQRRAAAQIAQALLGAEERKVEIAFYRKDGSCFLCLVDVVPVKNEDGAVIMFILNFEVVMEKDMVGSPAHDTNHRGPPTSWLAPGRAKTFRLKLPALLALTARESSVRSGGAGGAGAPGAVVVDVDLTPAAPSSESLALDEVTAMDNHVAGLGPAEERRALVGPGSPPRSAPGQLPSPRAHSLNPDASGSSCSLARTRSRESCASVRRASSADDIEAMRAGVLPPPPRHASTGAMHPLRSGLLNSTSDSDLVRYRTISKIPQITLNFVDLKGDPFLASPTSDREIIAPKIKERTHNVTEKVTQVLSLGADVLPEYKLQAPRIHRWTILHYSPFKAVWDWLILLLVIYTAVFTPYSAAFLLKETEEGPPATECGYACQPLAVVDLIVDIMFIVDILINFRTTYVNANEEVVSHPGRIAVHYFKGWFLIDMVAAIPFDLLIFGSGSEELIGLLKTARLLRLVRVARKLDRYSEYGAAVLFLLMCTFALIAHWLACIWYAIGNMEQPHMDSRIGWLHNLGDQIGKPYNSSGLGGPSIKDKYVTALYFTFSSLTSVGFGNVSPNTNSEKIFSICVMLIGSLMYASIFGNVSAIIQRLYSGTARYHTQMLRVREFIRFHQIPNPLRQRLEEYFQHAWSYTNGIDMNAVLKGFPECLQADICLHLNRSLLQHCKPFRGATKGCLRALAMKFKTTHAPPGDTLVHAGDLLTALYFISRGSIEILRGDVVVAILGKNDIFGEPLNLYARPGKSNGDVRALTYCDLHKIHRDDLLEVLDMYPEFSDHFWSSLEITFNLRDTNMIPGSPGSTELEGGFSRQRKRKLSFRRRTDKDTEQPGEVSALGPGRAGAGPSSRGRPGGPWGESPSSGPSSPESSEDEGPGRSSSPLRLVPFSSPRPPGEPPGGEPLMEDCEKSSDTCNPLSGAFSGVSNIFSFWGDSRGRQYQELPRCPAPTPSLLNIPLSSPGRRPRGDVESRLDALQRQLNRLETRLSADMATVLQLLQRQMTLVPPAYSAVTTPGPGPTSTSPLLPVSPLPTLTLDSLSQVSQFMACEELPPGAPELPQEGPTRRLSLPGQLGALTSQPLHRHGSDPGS

| Compound | hERG current change (%, negative = inhibition) at 10uM |
| --- | --- |
| Oc1cccc(C=NCc2ccccc2)c1O | -3.91% |
| CN(CC(=O)Nc1cccc(F)c1)C(=O)c1cn(-c2ccccc2)nc1-c1ccc(F)cc1 | -4.57% |
| Cc1cc(NC(=O)/C=C/c2ccc(Br)cc2)no1 | 12.6% |
| Cc1ccc(C2(C)NC(=O)N(CC(=O)NCc3cccs3)C2=O)cc1 (centres unmarked) | 7.71% |
| CC(C)(C)c1cc(O)c(C(C)(C)C)cc1O | -12.4% |
| N#CC(=C=[N-])c1nc2ccccc2nc1-[n+]1ccccc1 | -2.11% |
| Clc1cccc(Cl)c1COc1ccccn1 | 1.76% |
| COc1cc(NC(=O)CSc2nnc3c(C)cc4c(C)ccc(C)c4n23)c(C(=O)O)cc1OC | 27.1% |
| Cc1ccc(C(=O)Nc2ccc(C(=O)N3CCCCC3C)cc2)cc1 (centres unmarked) | -38% |
| CCOc1ccc(CN(Cc2ccco2)C(c2cccs2)c2nnnn2C(C)(C)C)cc1 (centres unmarked) | -1.63% |
| COCCCN1C(=O)C(=O)/C(=C(/O)c2ccc(S(=O)(=O)N3CCCCC3)cc2)C1c1ccc(O)cc1 (centres unmarked) | 16.2% |
| COc1ccc(C)cc1S(=O)(=O)Nc1cccc(Cl)c1Cl | -0.351% |
| COC(=O)c1sc(NC(=O)Cc2cccs2)nc1C | 2.88% |
| CCc1ccccc1N1CC(C(=O)O)CC1=O (centres unmarked) | -11.2% |
| CN1CCN(c2nc3c(c(=O)[nH]2)CCC3)CC1 | 26.7% |
| OCCCNCc1cccc2ccccc12 | -15.8% |
| Cn1c(=O)n(C)c2cc(/C=N/NC(=S)NCc3ccccc3)ccc21 | -10.3% |
| CC(C)(C)NC(=O)C(c1ccc(O)cc1)N(C(=O)CCC(=O)Nc1nccs1)c1cccc(F)c1 (centres unmarked) | 16.8% |
| COCCn1c(C)cc(C(=O)Cn2nc(C(=O)O)c3ccccc3c2=O)c1C | -3.4% |
| O=C(CCCCCN1C(=O)c2ccccc2C1=O)Nc1ccccc1F | -13.3% |
| Cc1ccc(N2CCN(c3cc(C)nc4nc(C)nn34)CC2)c(C)c1 | -72.6% |
| O=C(COC(=O)CCN1C(=O)c2ccccc2C1=O)Nc1ccccc1[N+](=O)[O-] | 14.6% |

| Compound | hERG current change (%, negative = inhibition) at 10uM |
| --- | --- |
| CCOc1ccc(CN2CCN(CC3=Cc4cccc(OC)c4OC3)CC2CCO)cc1 (centres unmarked) | -83.4% |
| COC(=O)c1ccc(/C=C(/NC(=O)c2ccccc2)C(=O)N2CCOCC2)cc1 | -9.15% |
| Cc1ccc(NC(=O)COC(=O)C2C3CC4OC(=O)C2C4C3)cc1 (centres unmarked) | -0.408% |
| COc1ccc(NC(=O)c2sc3nc(-c4cccnc4)ccc3c2N)cc1OC | -22.3% |
| OCCOc1cccc(CN2CCC(CO)(CCOc3ccccc3)CC2)c1 | -51.3% |
| COCCCNC(=O)c1ccc(Cn2c(=O)c3ccccc3n(Cc3ccccc3C#N)c2=O)cc1 | -7.35% |
| Cc1ccc(C(=O)NNC2CC(=O)N(c3ccc4c(c3)OCCO4)C2=O)cc1 (centres unmarked) | 1.14% |
| O=C(CCn1cnnn1)N1CCCC(Nc2ccc(F)cc2)C1 (centres unmarked) | 3.2% |
| CN(C)c1ccc(C2SCCN2C(=O)c2ccc([N+](=O)[O-])cc2)cc1 (centres unmarked) | -66.7% |
| Cc1ccccc1N1CCN(Cc2cc3c(cc2[N+](=O)[O-])OCO3)CC1 | 8.1% |
| CCOC(=O)Cn1c(=O)c(-c2cc(Br)ccc2N)nc2ccccc21 | 7.52% |
| Cn1c(Cn2c(=O)sc3ccccc32)nnc1SCc1ccccc1 | -10.1% |
| CC1(c2cccc(Br)c2)NC(=O)N(CC(=O)N2CCc3ccccc32)C1=O (centres unmarked) | -9.1% |
| COc1ccc(S(=O)(=O)N2CCC3(CC2)CC(=O)c2ccccc2O3)cc1C | -3.6% |
| O=C(NCC1CCCO1)c1ccc(OC2CCN(C(=O)C3CC3)CC2)cc1 (centres unmarked) | 12.7% |
| CCOCc1nc(C)c(Cl)c(NS(=O)(=O)c2ccc(N)cc2)n1 | 13.9% |
| COc1ccc(CCCc2nnc(SCC(=O)Nc3cc(C)c(C)cc3Br)o2)cc1 | -9.94% |
| Cl.c1ccc(CN2CCN(c3nc(NCc4ccco4)c4ccccc4n3)CC2)cc1 | -68.3% |
| COCCCNC(=O)C1CCC(CNS(=O)(=O)c2ccc(Cl)cc2)CC1 (centres unmarked) | 14.4% |
| COc1ccc(C(=O)Nc2ccc(Cl)c(S(=O)(=O)Nc3ccccc3OC)c2)cc1 | -14.2% |
| COc1ccc2c(c1)O/C(=C\c1ccccc1O)C2=O | 27.3% |
| O=C(Nc1ccccn1)C1CCN(S(=O)(=O)c2ccc(Cl)cc2)CC1 | -7.33% |

| Compound | hERG current change (%, negative = inhibition) at 10uM |
| --- | --- |
| Cl.OC1(CN2CCOCC2)C2CC3CC(C2)CC1C3 (centres unmarked) | 11% |
| CS(=O)(=O)N1CCc2cc(NC(=O)c3ccc(Cl)cc3Cl)ccc21 | 1.5% |
| CN(CC(=O)Nc1cccc(F)c1)C(=O)c1ccccc1OCCOc1ccccc1 | -30.9% |
| COc1ccc(C(=O)OCn2nnc3ccccc3c2=O)cc1[N+](=O)[O-] | 13.6% |
| CCCCOc1ccc(NC2=NC3(CCCC3)N=C(N)N2)cc1 | 21.3% |
| Oc1ccc(N=Cc2c(O)ccc3ccccc23)cc1 | 13.9% |
| CCCCNC(=S)NC(=O)c1ccc(Cl)cc1Cl | 22.7% |
| N#Cc1nc(-c2cccs2)oc1NCC1CCCO1 (centres unmarked) | -10% |
| COc1cc(OC)c(C2=NOC(C(=O)Nc3c(C)n(C)n(-c4ccccc4)c3=O)C2)cc1Cl (centres unmarked) | 12.8% |
| CSc1ccc(S(=O)(=O)Nc2ccc(N3CCOCC3)c(Cl)c2)cc1 | -7.48% |
| CSc1ccc(CCNC(=O)CN2C(=O)c3cccnc3Oc3ccc(C)cc32)cc1 | -39.6% |
| O=C(NC(=S)Nc1cccc([N+](=O)[O-])c1)c1ccccc1 | 13.4% |
| COc1cc(S(=O)(=O)Nc2ncccc2C)c(OC)cc1Cl | 2.23% |
| O=C(NCCc1ccc(Cl)cc1)c1ccc(NC2=NC3CS(=O)(=O)CC3S2)cc1 (centres unmarked) | 23.8% |
| COc1cccc(N2CCN(S(=O)(=O)c3ccc4c(c3)N(C(C)=O)CCO4)CC2)c1 | -45.1% |
| O/N=C1\CCCc2ccc(Cl)cc21 | -11.2% |
| Nc1nonc1-c1noc(CCCOc2ccc(Cl)cc2Cl)n1 | -12.3% |
| COc1cc(C=C2C(=O)OC(C)(C)OC2=O)ccc1OCC(=O)Nc1ccccc1 | 17.9% |
| CCN(CC)CCN1C(=O)C(=O)/C(=C(/O)c2ccc(OC)c(OC)c2)C1c1ccccn1 (centres unmarked) | 13.6% |
| O=C(Nc1ncccn1)c1ccc(Cl)c([N+](=O)[O-])c1 | 14.1% |
| O=C(COC(=O)Cc1ccc(Br)cc1)NC1CCCCCC1 | -1.07% |
| O=C1NC(c2ccccc2)=N/C1=C/c1ccco1 | -8.66% |

| Compound | hERG current change (%, negative = inhibition) at 10uM |
| --- | --- |
| CC1=C(C(=O)OCc2ccccc2)C(c2cccnc2)c2c(n(C)c(=O)n(C)c2=O)N1 (centres unmarked) | -32.5% |
| COc1ccc(NC(=O)c2ccc3c(c2)S(=O)(=O)c2ccccc2C3=O)cc1 | 7.94% |
| COc1ccc(CCN2C(=O)c3cccnc3C2=O)cc1OC | -14.5% |
| COc1ccccc1C(CNc1ncnc2sc(C)c(C)c12)N(C)C (centres unmarked) | -55.4% |
| O=C(Nc1ccc(-c2n[nH]c(=S)o2)cc1)c1ccccc1Cl | 21.1% |
| CCCN(CC1CCCO1)C(=O)c1cc(COc2ccc(F)cc2F)on1 (centres unmarked) | -15% |
| CCOC(=O)c1ccccc1NC(=O)COC(=O)CCC(=O)N1CCOCC1 | 0.246% |
| COc1ccc(S(=O)(=O)N2CCN(Cc3cccc(OC)c3)CC2)cc1 | -28.6% |
| O=C(NCc1ccccn1)c1n[nH]c(=O)c2ccccc12 | 10.6% |
| CC1(C)NC(=O)N(CC(=O)N2CCN(S(=O)(=O)c3ccccc3F)CC2)C1=O | -3.13% |
| COc1ccc(N(C(=O)c2cnccn2)C(C(=O)NCc2ccccc2)c2ccc(O)cc2)cc1 (centres unmarked) | 1.87% |
| Br.Cc1ccc(S(=O)(=O)CCSC(=N)N)cc1 | 13.1% |
| CCOC(=O)N1CCN(CCC(=O)Nc2cc([N+](=O)[O-])ccc2OC)CC1 | -49.9% |
| O=C(CCC(=O)Nc1ccc(F)cc1)N/N=C/c1cccc(Br)c1 | -0.632% |
| CCN1C(=NCc2cc(OC)c(OC)c(OC)c2)N[C@@H](c2ccccc2)[C@H](C(=O)OC)[C@H]1C | 8.16% |
| CC(C)(C)C(=O)CNS(=O)(=O)c1ccc(S(=O)(=O)NC2CC2)cc1 | 12.3% |
| COC(c1ccccc1)c1nnc(CCC(=O)NCc2cccc(-n3cccn3)c2)o1 (centres unmarked) | -19.8% |
| O=C(N/N=C1\C/C(=N\NC(=O)c2ccncc2)c2ccccc21)c1ccncc1 | 4.01% |
| CCOc1ccc(-n2c(C)nc3cc(C(=O)NCCCN4CCOCC4)ccc32)cc1 | -4.81% |
| CC(C)(C)NC(=O)C(OC(=O)c1cccs1)c1ccc(C#N)cc1 (centres unmarked) | 5.04% |
